# Reference: the supplement of paper PMC12217912
# The other results are listed elsewhere or left out. Sequences were assembled here from the parent chain. Values near 0.05 are background.
# B1: TEV protease; numbered along this chain (parent)
# chain: MGESLFKGPRDYNPISSSICHLTNESDGHTTSLYGIGFGPFIITNKHLFRRNNGTLVVQSLHGVFKVKDTTTLQQHLVDGRDMIIIRMPKDFPPFPQKLKFREPQREERICLVTTNFQTKSMSSMVSDTSCTFPSGDGIFWKHWIQTKDGQCGSPLVSTRDGFIVGIHSASNFTNTNNYFTSVPKNFMELLTNQEAQQWVSGWRLNADSVLWGGHKVFMVKPEEPFQPVKEATQL
# Variants of: B1
# Assay: raw area under fraction-flipped curve 0-4 h after induction (AUC4h, not background-subtracted), DNA-recorder readout of cleavage of the substrate (dimensionless); higher = more cleavage of the substrate by the protease variant
# Conditions: temperature: 34 °C; time window: 0-4 h after rhamnose induction
# 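Note: Bxb1 expression induced with 0.2% (w/v) L-rhamnose at OD600 near 0.5, cultures sampled hourly, flipped fraction per protease–substrate barcode pair counted by paired-end Illumina sequencing.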
Variant,area with substrate EDLYFQS,area with substrate EGLYFQS,area with substrate EQLYFQS,area with substrate ESLYFQS,area with substrate ETLYFQS,area with substrate EYLYFQS,area with substrate EILYFQS,area with substrate ELLYFQS,area with substrate EMLYFQS,area with substrate ERLYFQS
R51N,0.19,0.104,0.116,0.124,–,–,–,–,–,–
T119G,0.129,–,–,–,0.0927,0.094,–,–,–,–
T119A,0.132,0.102,0.0814,0.116,–,0.0831,0.0958,0.0855,0.122,0.112
I84H,–,0.0606,–,0.0613,–,–,0.0589,0.046,0.0524,–
I84N,0.0613,–,–,–,–,0.0739,0.0948,–,–,–
K7Y,–,–,–,0.112,–,–,–,–,–,–
R81P,–,–,0.091,–,–,–,–,–,–,–
K66H,–,–,0.125,0.097,–,–,–,–,–,–
N45G,0.133,0.071,–,–,–,–,0.0815,–,0.107,0.0547
G80L,0.106,0.0988,0.0806,0.121,–,–,0.0937,–,–,0.0936
G2A,0.135,–,–,–,0.159,–,0.114,0.123,–,–
G153S,0.0616,–,–,–,–,–,–,–,–,–
G153I,0.0458,0.0477,0.0378,0.0591,–,–,–,–,–,–
V229D,–,–,–,0.099,–,–,–,–,0.0844,–
Q227D,0.0985,–,0.149,0.109,–,–,0.0704,0.101,–,0.122
V210P,–,0.0688,0.0647,0.0775,–,0.0525,–,–,0.0626,0.0496
R87T,–,0.0937,–,0.0847,–,–,0.0637,–,–,0.101
R87D,0.0859,–,–,–,–,0.0881,–,0.071,0.096,0.0756
C111A,0.0944,–,–,0.104,–,–,0.0672,–,–,–
V217L,0.0824,–,–,0.0921,–,–,–,–,–,–
W141F,0.106,0.0758,–,–,–,–,0.0771,0.0949,0.077,0.0062
T174I,–,–,–,–,–,–,–,–,0.0488,0.087
F218V,0.117,0.0677,0.0912,0.11,0.129,0.1,–,–,–,0.0943

# Same assay, conditions: temperature: 34 °C; time window: 0-4 h after rhamnose induction
Variant,area with substrate EELYFQS,area with substrate EFLYFQS,area with substrate EKLYFQS,area with substrate EPLYFQS,area with substrate EVLYFQS,area with substrate EHLYFQS,area with substrate EWLYFQS,area with substrate ECLYFQS
I84H,0.0709,0.0436,0.0265,0.0357,–,–,–,–
I84N,0.0418,–,–,–,0.0608,–,–,–
K7Y,0.0656,–,0.113,–,0.0964,–,–,–
R81P,0.0883,–,–,–,–,0.0897,–,–
K66H,0.12,–,0.123,–,–,–,0.0883,–
N45G,0.097,–,0.0738,–,0.0807,–,–,–
G80L,–,0.0835,–,–,0.122,–,–,–
G2A,–,–,–,–,–,–,0.107,–
G153I,0.037,–,0.0544,0.0526,0.0419,0.0575,0.042,–
V229D,–,–,–,–,0.0789,0.0797,–,0.129
Q227D,0.0988,–,0.112,0.118,0.11,–,0.111,0.109
V210P,–,0.0861,–,0.0759,0.0619,0.07,0.0373,0.0662
R87T,0.0778,–,0.0596,0.0934,0.0916,–,–,–
R87D,0.0821,–,–,0.072,–,–,–,–
C111A,–,–,–,0.117,–,0.0943,–,–
V217L,–,0.112,–,–,–,–,–,0.0997
W141F,0.0922,0.106,–,0.103,–,–,0.108,–
T174I,0.0524,–,–,–,–,0.0845,–,–
F218V,0.129,0.0979,0.108,0.129,0.113,0.103,0.116,0.0932
